We go through one compound from publication PMC4081560 (PLoS ONE, 2014).

This assay deals with rK09/NA:Y275 virus. As to the kind of experiment: microbe, parasite or virus in culture. The settings on record: Influenza A virus, MDCK.

Each structure is given as a SMILES string.

The term EC50 denotes the concentration needed to bring the measured effect to its halfway point. A high value points to a need for much substance. Compound `NC(=O)c1nc(F)cnc1O` [Favipiravir, 6-fluoro-3-hydroxy-2-pyrazinecarboxamide] showed a concentration giving a half-maximal response (EC50) of 14.7 µM. That is a double-digit micromolar value.
